Experimental data taken from PubChem BioAssay AID1745845 (National Center for Advancing Translational Sciences (NCATS), 2022).
Values joined by “and” are separate entries in the source; they are usually repeats but may differ in a detail not shown here. Equal values may be shown once. Screen size: about 360,000 compounds; about 2,600 (0.72%) were called active. The inconclusive results got no clear call from the source; some entries with a clear call stand among them for comparison. Calls follow the shape of the dose curve; as a rule, active = well fitted inhibition curve with a large enough effect; inconclusive = small, poorly fitted or top-dose-only effect; inactive = no such curve, though single readings can be large or run the other way. A potency beside an inconclusive call is a rough fit, not a confirmed value.

Test: Primary qHTS for Inhibitors of ATXN expression; also: nearly all actives have a fitted effect of over 55% in size
Settings: HEK-293 ATXN2-luciferase reporter, luminescence, 24 h; series mostly up to 57 µM
Summary of the method: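 ATXN2-luciferase reporter cells (luciferase flanked by upstream and downstream ATXN2 gene portions) were treated 24 h at 37 °C with compounds at up to 57 uM. SteadyGlo luminescence gave expression; GF-AFC fluorescence gave viability.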
Potency is read from the fitted curve at half-maximal effect; tags tell the direction and shape of the fitted curve.

Structure (SMILES) | Potency
Cc1nc(C(=O)NNC(=O)c2ccc(Cl)cc2)c(C(F)(F)F)o1 | inconclusive: 35.5 µM [inhibitor, partial curve, poor fit]
CCCCC#Cc1cncc(C(=O)NN)c1 | inconclusive: 31.6 µM [inhibitor, single point]
Cn1nc(C(C)(C)C)cc1NC(=O)C1(C)CCN1C(=O)Cc1ccc(-c2ccccc2)cc1 (stereo not given) | inconclusive: 35.5 µM [inhibitor, single point]
Cc1ncc(CN2CCCC(C(=O)Nc3ccc(-c4cccc(F)c4)cc3)C2)s1 (stereo not given) | inconclusive: 31.6 µM [inhibitor, single point]
COc1cc2c3nnc(-c4ccc(F)cc4)c-3cn(Cc3ccccc3)c2cc1OC | active: 15.8 µM
COc1ccc(C(=O)Nc2ccc(S(=O)(=O)N(Cc3ccccc3)c3ccccc3)cc2)cc1 | inactive
COc1ccc(OC)c(CNC(=O)C2CCCCN2S(=O)(=O)c2ccc(F)cc2)c1 (stereo not given) | inactive
Cc1oc2ncn(C)c(=O)c2c1C(=O)NCc1ccc(Cl)cc1 | inactive
Cc1cc(N2C(=O)C(O)=C(C(=O)c3cc4ccccc4o3)C2c2ccc(Br)cc2)no1 (stereo not given) | inactive
Cc1cc(C(F)(F)F)nn1CCCNC(=O)c1cnccn1 | inactive
COCC(C)n1c(C)cc(C(=O)COc2ccc(C)nc2[N+](=O)[O-])c1C (stereo not given) | inconclusive: 7.52 µM [inhibitor, partial curve, poor fit]
O=C(c1ccc(Cl)c(S(=O)(=O)N2CCCCC2)c1)N1CCCCC1 | inactive
COc1ccc(C(=O)NNc2ncnc3c2cnn3-c2cccc(Cl)c2)cc1OC | inconclusive: 39.8 µM [inhibitor, single point]
COCc1cc(=O)n2[nH]cc(-c3ccccc3)c2n1 | inactive
CCCCNC(=O)c1cc(-c2ccc(OC)cc2)nc2n[nH]c(-c3cccc([N+](=O)[O-])c3)c12 | inactive
Cc1ccnc2c1ccc1c(C)ccnc12 | active: 5.32 µM
COC(=O)c1cc(CSc2nnc(NC3CCCCC3)s2)oc1C | inactive
C=CCn1c(=O)/c(=C/c2ccc(Cl)cc2)s/c1=C(/C#N)c1nnc2n1CCCCC2 | active: 22.4 µM
O=C(c1ccc(F)cc1)N1CCN=C1c1ccccc1 | inactive
Cc1ccc(C(=O)COC(=O)c2cccc(NC(=O)c3ccc(Cl)cc3Cl)c2)cc1 | inconclusive: 39.8 µM [inhibitor, single point]
CN1CCN(c2nc3c(c(=O)[nH]c(=O)n3C)n2CCSc2nnnn2-c2ccccc2)CC1 | inconclusive: 37.7 µM [inhibitor, single point]
COc1cc(C(=O)Nc2ccc3c(c2)N(C2CCCC2)C(=O)c2ccccc2S3)cc(OC)c1OC | inactive
O=C(CCCCn1c(=O)c2ccccc2n(CC(=O)Nc2ccc(F)cc2F)c1=O)NCCc1ccccc1 | inactive
CC(=NNC(=S)Nc1ccc(C)cc1)c1ccccn1 | inactive

Structure (SMILES) | Potency
C=CC[C@@H](CC(=O)OC(C)(C)C)C(=O)OC[C@H]1CCCN1C(=O)[C@@H](CC=C)CC(=O)N(CCO)Cc1ccccc1 | inactive
COCCNC(=O)C1(C)CCCN(C(=O)c2cccnc2SC)C1 (stereo not given) | inactive
COc1cccc(C(=O)Nc2nc(-c3ccc4c(c3)OCO4)cs2)c1 | inconclusive: 28.2 µM [inhibitor, single point]
Cc1cc(/C=C2\SC(=S)N(C)C2=O)c(C)n1-c1ccc(O)cc1 | inconclusive: 39.8 µM [inhibitor, partial curve, poor fit]
Oc1ccc(Br)cc1/C=N/Nc1nc(N2CCCCC2)nc(N2CCOCC2)n1 | inactive
CCCn1c(=N)n(CC(=O)C(C)(C)C)c2ccccc21 | inactive
COc1ccc(C2c3ccc(O)cc3Oc3ncn(Cc4ccco4)c(=N)c32)cc1OC (stereo not given) | inactive
CCCCN(CC)CCNC(=O)C1CCCN(c2ncnc3onc(C)c23)C1 (stereo not given) | inactive
COc1ccc(NC(=O)CCCCCn2nnc3ccccc3c2=O)cc1 | inconclusive: 3.16 µM [inhibitor, single point]
Clc1ccccc1Nc1nc(-c2ccncc2)nc2ccccc12 | inactive
CCc1cccc(C)c1NC(=S)NCCc1c(C)[nH]c2ccc(C)cc12 | inconclusive: 39.8 µM [inhibitor, single point]
Cc1ccc(N(CC(=O)Nc2cc(C)ccc2C)S(=O)(=O)c2c(C)noc2C)cc1 | inconclusive: 39.8 µM [inhibitor, single point]
OCCCn1c(CCNc2nc(-c3ccc(F)cc3)cs2)nc2cc(C(F)(F)F)ccc21 | inconclusive: 31.6 µM [inhibitor, single point]
C=CC[C@H](CC(=O)N(CCO)Cc1ccccc1)C(=O)N[C@H](COC(=O)[C@@H](CC=C)CC(=O)OC(C)(C)C)c1ccccc1 | inconclusive: 39.8 µM [inhibitor, single point]
CCOC(=O)c1ccc2c(c1)n(CC)c(/C=C/Nc1ccccc1)[n+]2CC | inconclusive: 11.2 µM [inhibitor, partial curve]
O=C(CC12CC3CC(CC(C3)C1)C2)NC(=S)NCc1ccccc1 | inactive
CCOc1ccc(S(=O)(=O)Nc2cc3c(C(=O)OC)c(COC)oc3c3ccccc23)cc1 | inconclusive: 3.98 µM [inhibitor, partial curve, poor fit]
COc1ccc(-c2nn(-c3ccccc3)cc2C2NC(=O)NC(C)=C2C(=O)OC(C)C)cc1Cl (stereo not given) | inconclusive: 39.8 µM [inhibitor, single point]
O=C(c1ccco1)N(CCCN1CCOCC1)c1nc(-c2ccc(Cl)cc2)cs1 | inconclusive: 25.1 µM [inhibitor, partial curve]
O=C(NC(Cc1ccccc1)c1nc2ccccc2[nH]1)c1cccc([N+](=O)[O-])c1 (stereo not given) | inconclusive: 17.8 µM [inhibitor, partial curve]
Cc1ccccc1-c1nc(CN2CCC(C(=O)N3CCN(c4ccccn4)CC3)CC2)c(C)o1 | inconclusive: 31.6 µM [inhibitor, partial curve, poor fit]
COc1cccc(-c2cccc3c2NC(=O)C3(C)Cc2cccc(F)c2)c1 (stereo not given) | inactive
CC(C)Cc1ccc(C(C)NC(=O)Cc2ccc(S(=O)(=O)N3CCOCC3)s2)cc1 (stereo not given) | inconclusive: 28.2 µM [inhibitor, partial curve, poor fit]
CCOc1ccccc1NC(=O)c1c(NCc2sccc2C)sc2c1CCCCC2 | inconclusive: 25.1 µM [inhibitor, single point]

Structure (SMILES) | Potency
CCO[C@@H]1OC(C(=O)N2CCN(Cc3ccc4c(c3)OCO4)CC2)=C[C@H](c2ccc(C(F)(F)F)cc2)[C@H]1CCCO | inconclusive: 31.6 µM [inhibitor, single point]
O=C(Nc1ccccc1Cl)N1CCN(c2ccc3nnc(-c4ccc(F)cc4)n3n2)CC1 | inactive
CNC(=O)c1ccc(N2C(=S)N(c3cnc(C#N)c(C(F)(F)F)c3)C(=O)C23CCC3)cc1F | active: 13.7 µM
Cc1ccc(-c2nc(CS(=O)CC(=O)N3CCN(c4ccc(Cl)cc4)CC3)c(C)o2)cc1 (stereo not given) | inconclusive: 14.1 µM [inhibitor, partial curve]
CCC(=O)NC(Nc1sc2c(c1C(=O)OC)CCC2)C(Cl)(Cl)Cl (stereo not given) | inactive
COc1ccc2nc3oc(C(=O)NCc4ccccc4OC)cc3cc2c1 | inactive
COc1ccc(/C=N/NC(=O)c2ccc(COc3ccccc3Cl)o2)c(OC)c1C | inconclusive: 35.5 µM [inhibitor, single point]
Clc1ccc(-c2nnc(NC3=NCCCCC3)o2)cc1 | inconclusive: 12.6 µM [inhibitor, single point]
O=C(NN=C1CCCC1)c1[nH]c2ccc(Cl)cc2c1-c1ccccc1 | inconclusive: 39.8 µM [inhibitor, single point]
COc1ccc(CC2SC(=O)NC2=O)cc1C(=O)NCc1ccc(C(F)(F)F)cc1 (stereo not given) | inconclusive: 21.7 µM [inhibitor, partial curve, poor fit]
COc1ccc(CC(N)c2csc(NC(=O)c3cc(C(C)(C)C)nn3Cc3ccccc3)n2)cc1 (stereo not given) | inconclusive: 39.8 µM [inhibitor, single point]
Cc1ccc(C(=O)NNC(=S)NC(=O)c2ccc(Cl)cc2)cc1 | inconclusive: 22.4 µM [inhibitor, single point]
O=C(Nc1ccc(Cl)cc1)N1CCN(c2ccc3nnc(-c4ccc(F)cc4)n3n2)CC1 | inactive and inconclusive: 12.6 µM [inhibitor, partial curve]
ClC(Cl)(Cl)c1nc2ccccc2n2nncc12 | active: 12.6 µM
COc1ccc(OCCCC(=O)Nc2cc(S(=O)(=O)N3CCCCC3)ccc2C)cc1 | inconclusive: 15.8 µM [inhibitor, partial curve]
Cn1nnnc1Sc1ncnc2scc(-c3cccc4ccccc34)c12 | inconclusive: 25.1 µM [inhibitor, single point]
Cc1c(O)ccc2c(CN3CCN(C/C=C/c4ccccc4)CC3)cc(=O)oc12 | inconclusive: 25.1 µM [inhibitor, single point]
CCOC(=O)c1ccc(NC(=O)c2nc[nH]c2C(=O)N2CCC(C)CC2)cc1 | inactive
CCCc1nc2oc3c(NCCN(C)C)ncnc3c2c2c1CCCC2 | inconclusive: 39.8 µM [inhibitor, single point]
Cc1cc(-c2nnc(CCC(=O)NC(C)(C)C34CC5CC(CC(C5)C3)C4)o2)no1 | inactive
Cc1ccc(C)c(C(=O)OCC(=O)Nc2cccc(S(=O)(=O)NC3=NCCCCC3)c2)c1 | inactive
CCOc1ccc(-n2cc(C(=O)Nc3ccc(Cl)cn3)c3cc(OC)c(OC)cc3c2=O)cc1 | inactive
